Measured values: PubChem BioAssay AID1240 (Sanford-Burnham Center for Chemical Genomics, 2008)
The campaign covered roughly 50,000 compounds. About 800 (1.6%) showed an effect of 50% or more. The list shows a part of the results.

The compounds below were run against Bcl-2-like protein 10 (Homo sapiens) (UniProt Q9HD36) (assay: TR3 peptide-Bcl-B binding displacers, biochemical primary FP assay, phenotype converters (AID 1240;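 further: 0% = Bcl-B with tracer peptide and DMSO and 100% = tracer peptide lacking Bcl-B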)). Details: GST-Bcl-B / FITC-TR3 peptide fluorescence polarization; stronger effect = higher value; compound at 3.75 mg/L.
Sequence of UniProt Q9HD36 (Q9HD36 whole entry, looked up): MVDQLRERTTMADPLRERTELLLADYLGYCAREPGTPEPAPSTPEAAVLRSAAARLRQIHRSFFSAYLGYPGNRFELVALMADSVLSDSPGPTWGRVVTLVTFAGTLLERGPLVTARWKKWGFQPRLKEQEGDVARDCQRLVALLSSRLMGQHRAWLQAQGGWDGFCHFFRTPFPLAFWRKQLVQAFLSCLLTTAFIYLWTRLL
COc1ccc(S(=O)(=O)N(CCc2ccccc2)CC(=O)NCc2cccnc2)cc1 showed a displacement of -13.2%.
Compound Cc1ccccc1NS(=O)(=O)c1cccc(C(=O)Nc2ccc(Cl)cc2)c1 has a displacement of -4.4%.
For CC1(C)CC(=O)c2c(oc3ccc(NS(=O)(=O)c4cc(Cl)ccc4Cl)cc23)C1, the displacement was 0.3%.
Work on Cc1c(C(=O)Oc2c(Br)cc(Br)cc2Br)cccc1[N+](=O)[O-] yielded a displacement of 3.8%.
In the case of Cc1cc(NC(=O)C23CC4CC(CC(C4)C2)C3)no1, the displacement is reported as -3.4%.
For O=C1NN(c2ccccc2)C(=O)/C1=C\c1ccccc1O, the displacement was 37.7%.
Work on CCCCCOC(=O)COc1ccc(S(=O)(=O)c2ccc(OCC(=O)OCCCCC)cc2)cc1 yielded a displacement of 3.8%.
NS(=O)(=O)c1ccc(NC(=O)/C(=C\c2ccc(Br)cc2)NC(=O)c2ccccc2Cl)cc1 was tested, and the displacement was 3.5%.
For CC1(C)CC(=O)C2=C(C1)Nc1sc(C#N)c(N)c1C2c1ccccc1 (stereo not drawn), the displacement was -7.9%.
With CC(=O)Nc1ccc(NC2=C(Cl)C(=O)c3c(Cl)c(Cl)c(Cl)c(Cl)c32)cc1 the displacement was 16.4%.
Work on C=CCc1ccccc1OCCOc1c(Br)cc(C=C2C(=O)NC(=S)NC2=O)cc1OC yielded a displacement of 3.5%.
COC(=O)c1c(-c2cc(C)ccc2C)csc1N was tested, and the displacement was -6.2%.
Work on CN(C)c1ccc(/C=C2/C=C(c3ccccc3)OC2=O)cc1 yielded a displacement of -7.2%.
Work on Cc1cc2nc3s/c(=C/c4ccc([N+](=O)[O-])cc4)c(=O)n3c2cc1C yielded a displacement of 0.7%.
NS(=O)(=O)c1cccc(NC(=O)c2ccc(OCc3ccccc3)cc2)c1 showed a displacement of -6.3%.
For CCOC(=O)C1=C(c2ccccc2)N=c2s/c(=C\c3cccc(O)c3)c(=O)n2C1c1cccs1 (stereo not drawn), the displacement was -10.5%.
Cc1ccc(OCCSc2nc3ccccc3[nH]2)cc1C showed a displacement of 3%.
Work on CCOc1ccc(C2Nc3ccccc3NC3=C2C(=O)CC(c2ccccc2)C3)cc1 (stereo not drawn) yielded a displacement of 5%.
Cc1ccc(C2CC(C(F)(F)F)n3nc(C(=O)N(Cc4ccccc4)Cc4ccccc4)cc3N2)cc1 (stereo not drawn) was tested, and the displacement was 8.1%.
For O=S(=O)(CC(O)COCc1ccc(Cl)cc1)c1ccccn1 (stereo not drawn), the displacement was -4.8%.
COc1ccc(S(=O)(=O)CCc2nnc(-c3ccc(Br)cc3)o2)cc1 was tested, and the displacement was 5%.
CCOC(=O)/C(=N\O)C1=NC(C)(C)C(C)c2ccccc21 (stereo not drawn) showed a displacement of 11.4%.
With COc1cccc(/C=C2/C(=O)NC(=O)N(c3cc(C)cc(C)c3)C2=O)c1O the displacement was 10%.
Brc1cccc(CN2CCN(Cc3ccccn3)CC2)c1 was tested, and the displacement was -24%.
C=CCN1C(=O)/C(=C\c2ccc(OCc3ccccc3)cc2)SC1=S was tested, and the displacement was 11.4%.
Work on O=C(O)CCN1C(=O)/C(=C/c2cn(-c3ccccc3)nc2-c2cccc([N+](=O)[O-])c2)SC1=S yielded a displacement of 11.7%.
Work on COc1ccc(NC(=O)CN(c2cc(Cl)cc(Cl)c2)S(C)(=O)=O)cc1OC yielded a displacement of 0.3%.
Compound CCCOC(=O)c1cccc(NC(=O)COc2cc(C)cc(C)c2)c1 has a displacement of 16.6%.
Work on COc1cccc(C2c3c(-c4ccccc4)n[nH]c3C(=O)N2c2ccccc2)c1 (stereo not drawn) yielded a displacement of 0.1%.
Work on CCOC(=O)C1C(=O)C=C(C)C(C(=O)OCC)C1c1ccc(Br)cc1 (stereo not drawn) yielded a displacement of -6.7%.
O=C1NC(=Nc2ccc(F)cc2)S/C1=C\c1ccco1 showed a displacement of 32.8%.
With Cn1c(=O)c2c3c(sc2n2c(SCc4ccccc4)nnc12)CCC3 the displacement was 11.7%.
COc1cccc(-c2nnc(NC(=O)Nc3ccc(Cl)c(Cl)c3)s2)c1 showed a displacement of 4.5%.
In the case of COCCOC(=O)c1ccc(NC(=O)COc2ccc(-c3ccc(C)cc3)cc2)cc1, the displacement is reported as -1.9%.
With COc1cc(C(=O)N2CCN(C(=O)c3cccs3)CC2)cc(OC)c1OC the displacement was 9.4%.
CCCOc1ccc2c(oc(=O)c3ccccc32)c1C gave a displacement of 9.1%.
With CC1=C(C(=O)OC2CCCCC2)C(c2ccc(O)cc2)C2=C(CCCC2=O)N1 (stereo not drawn) the displacement was -10.7%.
Work on C=CCOc1ccccc1/C=N/NS(=O)(=O)c1ccc(Cl)cc1 yielded a displacement of -6.7%.
For O=C1/C(=C\c2ccco2)SC(=S)N1C1CCCCC1, the displacement was 22.4%.
Cc1ccc([N+](=O)[O-])c(OCC(=O)Oc2ccccc2)c1 was tested, and the displacement was -11.5%.
CCN1C(=O)c2cccc3c(S(=O)(=O)N(C)c4ccccc4)ccc1c23 was tested, and the displacement was -3.2%.
Work on CC1(C)Cc2ccccc2C(Nc2nc(-c3ccccc3)cs2)=N1 yielded a displacement of 0.8%.
With COc1ccccc1C1Nc2ccccc2NC2=C1C(=O)CC(c1ccccc1)C2 (stereo not drawn) the displacement was -4.4%.
With COc1cccc2cc(-c3nc(-c4cc5cc(Br)ccc5oc4=O)cs3)c(=O)oc12 the displacement was -4.9%.
For Cn1cnnc1SCC(=O)Nc1ccccc1, the displacement was 0%.
Compound COc1ccc(C(=O)CN2CCN(CCN3C(=O)c4cccc5cccc(c45)C3=O)CC2)cc1 has a displacement of 9.4%.
O=c1/c(=C\c2ccc(OS(=O)(=O)c3cccc([N+](=O)[O-])c3)cc2)sc2nc3ccccc3n12 gave a displacement of -6.5%.
COc1ccc(C=O)c2c(O)cccc12 was tested, and the displacement was 14.6%.
CN(C)c1ccc(-c2c3cc(O)c(=O)cc-3oc3cc(O)c(O)cc23)cc1 showed a displacement of 24.9%.
In the case of O=C(O)CN1C(=O)/C(=C2\SC(=S)N(/N=C/c3cc([N+](=O)[O-])ccc3O)C2=O)c2ccccc21, the displacement is reported as 32.1%.
O=C(NNC(=O)c1cccnc1)NC1CCCCC1 was tested, and the displacement was -6%.
Cc1ccc(C(=O)CC(=O)c2ccc(Br)cc2)c(O)c1 gave a displacement of -11.8%.
With O=C(CSc1ncc(-c2ccccc2)[nH]1)Nc1ccc(F)cc1 the displacement was 5.5%.
In the case of Cc1cc(-c2ccccc2)nc2cc(C(=O)N3CCCc4ccccc43)nn12, the displacement is reported as 14.2%.
CC(=O)NN(c1ccccc1)C1CC(C)N(c2ccccc2)N1C(C)=O (stereo not drawn) gave a displacement of 5%.
In the case of O=[N+]([O-])c1ccc(N(CC(O)CN2CCCCC2)S(=O)(=O)c2ccccc2)cc1 (stereo not drawn), the displacement is reported as -10%.
For O=C(Cc1cccc2ccccc12)NCCOc1ccccc1Cl, the displacement was -13.8%.
CCNC(=O)C(=O)Nc1cc(Cl)ccc1C showed a displacement of 14.3%.
In the case of COc1ccc(Cl)cc1S(=O)(=O)n1cnc2ccccc21, the displacement is reported as 11.1%.
Cc1ccc(C2=NN(C(=O)CCC(=O)O)C(c3ccccc3F)C2)cc1 (stereo not drawn) was tested, and the displacement was 6.1%.
For O=[N+]([O-])c1ccc(Cl)c(N2CCCC2)c1, the displacement was 15.4%.
CCn1ccnc1C(O)c1ccc(N(C)C)cc1 (stereo not drawn) was tested, and the displacement was 15.2%.
C/C(=N\NC(=O)CSc1nc2ccccc2n1Cc1ccccc1)c1ccco1 showed a displacement of -9.6%.
For O=C(c1c(F)cccc1F)N1CCN(c2cc(N3CCCCC3)c(F)cc2[N+](=O)[O-])CC1, the displacement was -2.7%.
COc1cc(/C=C2\Sc3ccccc3C2=O)ccc1OCC#N gave a displacement of -0.9%.
For CCN(C(=O)c1ccccc1)c1ccccc1, the displacement was 10%.
O=C(NCc1ccccn1)c1ccc(O)cc1 gave a displacement of 8.5%.
In the case of CCC(=O)Oc1ccc2c3c(c(=O)oc2c1C)CCC3, the displacement is reported as 13.7%.
For O=C1c2ccc(Oc3ccc([N+](=O)[O-])cc3)cc2C(=O)N1CC1CCCO1 (stereo not drawn), the displacement was 10.9%.
For CC1=CC(C)(C)N(C(=O)NC2CCCCC2)c2ccc(C)cc21, the displacement was -2.3%.
For O=C(CCC1CCCC1)Nc1nc(-c2ccc(F)cc2)cs1, the displacement was -10.3%.
Work on COc1ccc(N(CC(=O)N(Cc2ccccc2)Cc2ccccc2)S(C)(=O)=O)cc1 yielded a displacement of 1.7%.
In the case of C=CCOC(=O)C1=C(C)NC(C)=C(C(=O)OCC=C)C1c1ccc(OC)cc1, the displacement is reported as 11.7%.
CCCc1ncc(C(O)c2ccc(OC)c(OC)c2)n1C (stereo not drawn) gave a displacement of -3.5%.
CC(=O)NCCCc1oc2ccc(O)cc2c1[N+](=O)[O-] showed a displacement of -3.4%.
For O=C(CN(c1cccc([N+](=O)[O-])c1)S(=O)(=O)c1ccccc1)NCc1ccc(Cl)cc1Cl, the displacement was 2%.
For C=CCNC(=O)CN(c1cccc(Cl)c1)S(=O)(=O)c1ccccc1, the displacement was 12.1%.
COn1c(=O)c(=O)n(OCc2ccccc2)c2ccccc21 showed a displacement of 14.4%.
With CC(C)CCn1c(=O)[nH]c2ccccc21 the displacement was 10.2%.
CCOc1ccccc1NC(=O)C(=O)N/N=C/c1ccc([N+](=O)[O-])cc1 gave a displacement of -3.5%.
With Cc1nn(-c2ccccc2)c(C)c1/C=N/O the displacement was 3.2%.
Compound CCOc1ccccc1N1C(=O)CC(Sc2ccccc2C(=O)O)C1=O (stereo not drawn) has a displacement of 7.8%.
Work on O=C1/C(=C/c2cccs2)SC(=S)N1c1ccc(Br)cc1 yielded a displacement of -1.9%.
With CCOC(=O)c1ccccc1NC(=O)C(C)Oc1ccc(Cl)cc1C (stereo not drawn) the displacement was -6.9%.
CCc1ccc(NC2=C(Cl)C(=O)N(c3ccc(C)cc3C)C2=O)cc1 showed a displacement of 45.2%.
CCOc1ccc(/C=C2/SC(=O)N(CN3CCCCC3)C2=O)cc1 was tested, and the displacement was -1.7%.
For CCC(C)NC(=O)C1CN(S(=O)(=O)c2ccccc2)CCN1S(=O)(=O)c1ccccc1 (stereo not drawn), the displacement was 2.7%.
COC(=O)c1ccc(NS(=O)(=O)c2ccc(Cl)cc2)cc1 was tested, and the displacement was -9.8%.
In the case of COc1ccccc1NC(=O)c1ccc2c(c1)C(=O)N(c1ccccc1C)C2=O, the displacement is reported as 7.1%.
Compound Cc1ccc(C(=O)Nc2cccc(Cl)c2)o1 has a displacement of -1.2%.
Clc1cccc(C=NN2CCN(Cc3ccccc3)CC2)c1 was tested, and the displacement was -21.2%.
For COc1cc(/C=C2/SC(=S)N(c3ccccc3)C2=O)ccc1OC(=O)c1ccc([N+](=O)[O-])cc1, the displacement was 11.8%.
For Clc1ccc(C=NN2CCN(Cc3ccccc3Cl)CC2)cc1Cl, the displacement was -3.3%.
Work on COc1ccc(/C(C)=N/N=C(\C)c2ccc(OC)cc2OC)c(OC)c1 yielded a displacement of -5%.
For O=[N+]([O-])c1ccc(N2CCOCC2)cc1NCCOc1ccc(F)cc1, the displacement was -9.6%.
With CSc1nsc(SC)c1C(=O)N1CCN(S(=O)(=O)c2ccc(C)cc2)C1C(C)C (stereo not drawn) the displacement was -1.7%.
Cc1nc2cc(-c3ccco3)[nH]n2c(=O)c1C gave a displacement of 17%.
CCOc1cccc2sc(NC(=O)c3cccc([N+](=O)[O-])c3)nc12 showed a displacement of -1.2%.
Work on NC(=O)SCC(=O)Nc1ccc(Cl)cc1 yielded a displacement of -24.1%.
With C=CCn1c(=S)[nH]c2sc3c(c2c1=O)CCc1ccccc1-3 the displacement was -4.7%.
For O=C1NC(=S)N(c2ccc(Cl)cc2)C(=O)C1=Cc1ccsc1, the displacement was 8.3%.
COc1ccc(/C=C2\SC(=S)N(CCCC(=O)Nc3ccccc3)C2=O)cc1 gave a displacement of 4.5%.
In the case of Cc1cccc(C(=O)O)c1NC(=O)c1cccc([N+](=O)[O-])c1, the displacement is reported as 11.4%.
With CC1=C(C(=O)OC(C)C)C(c2ccc(Cl)cc2)C2=C(CCCC2=O)N1 (stereo not drawn) the displacement was 4.7%.
NNC(=O)CCc1nc2ccccc2[nH]1 was tested, and the displacement was -6%.
In the case of O=C(NCc1ccccc1)c1cc2cc(Br)cc(Br)c2oc1=O, the displacement is reported as 3.2%.
O=C(N/N=C/c1cc([N+](=O)[O-])ccc1N1CCCCCC1)c1ccccn1 was tested, and the displacement was -12.9%.
Compound COCCNCCOc1ccc(F)cc1 has a displacement of -1.9%.
